From PubChem BioAssay AID652104 (National Center for Advancing Translational Sciences (NCATS), 2013)
The campaign covered roughly 410,000 compounds. About 7,200 (1.8%) were called active. This list was built around the results that the source calls inconclusive (neither active nor inactive); the mix of calls is not that of the screen. Calls follow the shape of the dose curve; as a rule, active = well fitted activation curve with a large enough effect; inconclusive = small, poorly fitted or top-dose-only effect, or another doubt; inactive = no such curve, though single readings can be large or run the other way. Potencies of inconclusive entries are doubtful fits and often do not repeat.

experiment: qHTS of TDP-43 Inhibitors; settings: TDP-43 expressing yeast growth rescue, BacTiter-Glo, 24 h; growth rescue (activation): at 46.1 µM (top of the series) unless noted; also: nearly all actives have a fitted effect of over 50% in size; as to growth rescue (activation): % of control where 0% means no effect
Outline: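 Yeast expressing TDP-43 (pregrown in raffinose, seeded at OD600=0.02 in galactose medium) exposed to compounds 24 hr at 30 deg C. Growth read by BacTiter-Glo luminescence; rescue of toxicity appears as increased signal.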
Potency is read from the fitted curve at half-maximal effect; tags tell the direction and shape of the fitted curve.

Potency, active:
COc1ccc(N2C(=O)CC(N3CCC(O)(c4cccc(C(F)(F)F)c4)CC3)C2=O)cc1 (configuration not stated) 17.8 µM, CCOC(=O)N/C(N)=N/c1nc2ccccc2s1 11.2 µM, COc1ccc(-c2nc(SCc3ccccc3)n(S(C)(=O)=O)n2)cc1 2.82 µM

Potency, inconclusive:
COc1cc(/C=C2\SC(N)=NC2=O)cc(OC)c1 3.55 µM [activator, partial curve, poor fit], COc1ccccc1NC(=O)CSC1=Nc2ccccc2C2=NC(CCC(=O)NCc3cccs3)C(=O)N12 (configuration not stated) 7.94 µM [activator, full curve, poor fit], CC1(OC(=O)C2CCCC2)C(=O)C=C2C=C(c3ccsc3)N(C3CCCC3)C=C2C1=O (configuration not stated) 22.4 µM [activator, partial curve], COC(=O)c1cc(-c2ccc(OC)c(OC)c2)on1 20 µM [activator, single point], O=C(NCc1ccccc1)C1C(c2ccc3c(c2)OCO3)=Nc2ccccc2N1C(=O)c1cccc2ccccc12 (configuration not stated) 10 µM [activator, partial curve, poor fit], O=C(Nc1ccc(N2CCN(C(=O)c3ccco3)CC2)c(Cl)c1)c1c(F)c(F)c(F)c(F)c1F 15.8 µM [activator, partial curve], O=S(=O)(c1ccc(=S)[nH]c1)N1CCCCC1 4.47 µM [activator, full curve], CN(C)c1ccc(/C=N/OC(=O)Nc2ccccc2)cc1 31.6 µM [activator, single point], O=C(CCC1CCCCC1)Nc1ccccc1O 11.2 µM [activator, single point], Fc1ccc(NC(=S)N2CCCN(c3ccc(C(F)(F)F)cn3)CC2)c(F)c1 17.8 µM [activator, partial curve], O=C(CSc1n[nH]c(-c2ccccc2Cl)n1)N1CCN(c2ccccc2F)CC1 35.5 µM [activator, single point], CCOc1ccc(N(CC)C(=O)CSc2n[nH]c(-c3ccccc3)n2)cc1 35.5 µM [activator, single point], Cc1ccc(SCc2nc(-c3ccccn3)no2)cc1 11.2 µM [activator, partial curve], O=C(NCc1ccc2c(c1)OCO2)c1ccc(Cl)s1 15.8 µM [activator, partial curve], CNc1cncc(-c2cnn(CC(C)C)c2)n1 5.01 µM [activator, single point], CCCCn1nnnc1C(c1ccccc1)N1CCN(c2ncc(C(F)(F)F)cc2Cl)CC1 (configuration not stated) 31.6 µM [activator, single point], Cc1cccc(C(=O)O/N=C(\N)c2cccc([N+](=O)[O-])c2)c1 14.1 µM [activator, single point], Nc1ccc(-c2ccc(N)cc2C(F)(F)F)c(C(F)(F)F)c1 35.5 µM [activator, single point], O=C(c1ccco1)N1CCN(C(=O)N2c3ccccc3Sc3ccccc32)CC1 25.1 µM [activator, single point], COc1ccc(-n2c(SCCC#N)nnc2-c2cc(Cl)ccc2OC)cc1Cl 11.2 µM [activator, partial curve], CCCCOc1ccc(C(=O)Nc2cc(C)c(OCC(=O)N3CCOCC3)c(C)c2)cc1 11.2 µM [activator, partial curve, poor fit], c1ccc(COn2nnc3ccccc32)c(COn2nnc3ccccc32)c1 17.8 µM [activator, single point], Cc1cccc(CSCC(=O)N2CCN(S(=O)(=O)c3ccccc3C#N)CC2)c1 14.1 µM [activator, single point], O=C(COc1ccc(Cl)cc1)N1CCN(c2cccc(C(F)(F)F)c2)CC1 35.5 µM [activator, single point], Cc1ccc(N2CC(NC(=O)c3ccc4c(c3)OCO4)CC2=O)cc1 (configuration not stated) 35.5 µM [activator, partial curve, poor fit], O=C(COC(=O)c1cccc(Br)c1)NC1CCCCCCC1 15.8 µM [activator, single point]

Growth rescue (activation), inconclusive:
O=C1CSCC(=O)N1Cc1ccc(Cl)c(Cl)c1 38.1% [activator], O=C(c1cc(Br)ccc1Cl)N1CCN(c2ncccn2)CC1 38.3% [activator]

Growth rescue (activation), inactive:
COc1cc(-c2nc3ccc(C)cn3c2NCc2ccccc2)ccc1SC1CCCCC1 23.5%, Cc1ccccc1-c1noc(CSc2nnc(-c3ccncc3)n2-c2ccc(F)cc2)n1 2.94% [at 9.22 µM], O=S(=O)(c1ccccc1)C1CC1(c1ccccc1)c1ccccc1 (configuration not stated) -2.09%, S=c1[nH]nc(Cc2c[nH]c3ccccc23)o1 -3.39%, O=C1CN(S(=O)(=O)c2ccc([N+](=O)[O-])cc2)CC(=O)N1 -9.17%, CCCN1CCN(C(=O)c2ccc3[nH]c(C)c(C)c3c2)CC1 -0.711%, Oc1oc(-c2ccccc2)nc1/C=N/c1nccs1 6.07%, COc1ccc(-c2csc(Nc3ncccc3C)n2)cc1 24.3%, COc1ccc(-c2noc(N3CCN(c4cccc(C)c4C)CC3)n2)cc1OC 0%, COC(=O)c1c(C)sc(-c2c(-c3cccc(Cl)c3)[nH]c3c2c(=O)[nH]c(=O)n3C)c1O -7.82%, Cc1ccc(Sc2ccc(NC(=O)c3ccc(F)cc3)cc2C#N)cc1 -20.1%, COCCNC(=O)c1c(N)n(-c2cccc(C)c2)c2nc3ccccc3nc12 25.6%, O=C(CSc1ncnc2ccccc12)c1ccc2c(c1)OCCO2 -24.9%, Cc1cccc(OCC(=O)Nc2ccc3c(c2)nc(CCNC(=O)c2ccco2)n3C)c1 14.5%, COc1ccc(Cc2n[nH]c(=S)n2Cc2ccccc2)cc1Cl 18.1%, O=C1c2ccccc2NC(c2ccccc2)N1Cc1ccco1 (configuration not stated) 5.01%
